Data on 306 variants can be found in a collection of fitness landscapes (doi:10.1126/science.1257360).

The other results are listed elsewhere or left out. A value given as a limit tells only on which side of the number the result lay.

B1: PhoQ; a variant is named by its letters at X, in order, P23837 (parent)
chain: MKKLLRLFFPLSLRVRFLLATAAVVLVLSLAYGMVALIGYSVSFDKTTFRLLRGESNLFYTLAKWENNKLHVELPENIDKQSPTMTLIYDENGQLLWAQRDVPWLMKMIQPDWLKSNGFHEIEADVNDTSLLLSGDHSIQQQLQEVREDDDDAEMTHSVAVNVYPATSRMPKLTIVVVDTIPVELKSSYMVWSWFIYVLSANLLLVIPLLWVAAWWSLRPIEALAKEVRELEEHNRELLNPATTRELTSLVRNLNRLLKSERERYDKYRTTLTDLTHSLKTPLXXLQXXLRSLRSEKMSVSDAEPVMLEQISRISQQIGYYLHRASMRGGTLLSRELHPVAPLLDNLTSALNKVYQRKGVNISLDISPEISFVGEQNDFVEVMGNVLDNACKYCLEFVEISARQTDEHLYIVVEDDGPGIPLSKREVIFDRGQRVDTLRPGQGVGLAVAREITEQYEGKIVAGESMLGGARMEVIFGRQHSAPKDE

In the test the parent is B1. Description: enrichment ratio after two sorts for PhoP signalling (ratio (wild type AVST 3.29)); higher = more functional. Particulars: with PhoP (E. coli).
Turning to DKVW, the enrichment ratio is ≤ 0.25.
For LALP, the enrichment ratio was ≤ 0.25.
Under HMMF stands ≤ 0.25.
Under RSKC stands ≤ 0.25; under AICR, 11.2; under GGQF, ≤ 0.25.
Under ACCQ stands 8.96; under IDCL, ≤ 0.25.
On to KQHN, for which the enrichment ratio was ≤ 0.25.
On to FGIR, for which the enrichment ratio was ≤ 0.25.
As for VPDR, the enrichment ratio is ≤ 0.25.
In the case of VIFE, the enrichment ratio was ≤ 0.25.
Under AWSM stands ≤ 0.25; under SLDR, ≤ 0.25.
The value for AHYH was ≤ 0.25; that for PGSD was ≤ 0.25.
The value for PTTK was ≤ 0.25; that for ELDG was ≤ 0.25; that for HLWY was ≤ 0.25.
As for PILH, the enrichment ratio was ≤ 0.25.
On to VGGL, for which the enrichment ratio is ≤ 0.25.
Take WDIG: the enrichment ratio is ≤ 0.25.
The value for LPPN was ≤ 0.25.
Regarding NERY, the enrichment ratio was ≤ 0.25.
Regarding KQMH, the enrichment ratio is ≤ 0.25.
As for IKAN, the enrichment ratio was ≤ 0.25.
Under HEMK stands ≤ 0.25; under YKAP, ≤ 0.25; under GEFC, ≤ 0.25.
Under YTCH stands 0.285; under PWEL, ≤ 0.25; under QKGF, ≤ 0.25.
Take ADRR: the enrichment ratio was ≤ 0.25.
Under WMWT stands ≤ 0.25; under YCCA, ≤ 0.25; under YMHL, ≤ 0.25.
Under EDNS stands ≤ 0.25.
The value for QCFA was ≤ 0.25; that for ETSR was ≤ 0.25.
For QQMI, the enrichment ratio is ≤ 0.25.
Under DVAG stands ≤ 0.25; under TVEA, ≤ 0.25; under WLNF, ≤ 0.25.
As for DCSI, the enrichment ratio is ≤ 0.25.
The value for TQCK was 1.24.
Under QSVP stands ≤ 0.25.
The value for VEFF was ≤ 0.25; that for WQKM was ≤ 0.25.
For the variant WTIV, the enrichment ratio was ≤ 0.25.
Under RSVG stands ≤ 0.25; under NMNC, ≤ 0.25.
Under KDHN stands ≤ 0.25; under ARKW, ≤ 0.25.
Under MKSD stands ≤ 0.25; under HEWY, ≤ 0.25.
VCFW: the enrichment ratio is ≤ 0.25.
Consider HMAC, for which the enrichment ratio was ≤ 0.25.
Under EVWG stands ≤ 0.25; under MFDA, ≤ 0.25; under TDEF, ≤ 0.25.
On to FLLA, for which the enrichment ratio is ≤ 0.25.
Under MREP stands ≤ 0.25; under WYWH, ≤ 0.25; under NEFF, ≤ 0.25.
Regarding VMNS, the enrichment ratio was ≤ 0.25.
The value for HNRV was ≤ 0.25; that for HNVS was ≤ 0.25; that for CSLI was 0.428.
The value for PMGT was ≤ 0.25; that for WNFH was ≤ 0.25.
Regarding YHSR, the enrichment ratio was ≤ 0.25.
Under AQIV stands 9.59.
Under MITY stands ≤ 0.25; under SFIC, 1.82.
On to AAYH, for which the enrichment ratio was ≤ 0.25.
Under KDFK stands ≤ 0.25.
The value for GQRS was ≤ 0.25; that for LPLD was ≤ 0.25; that for VKVV was ≤ 0.25.
In the case of WRYQ, the enrichment ratio is ≤ 0.25.
The value for RGVK was ≤ 0.25.
Turning to WEWY, the enrichment ratio is ≤ 0.25.
Turning to FATM, the enrichment ratio is ≤ 0.25.
With QDSW, the enrichment ratio is ≤ 0.25.
In the case of AADP, the enrichment ratio was ≤ 0.25.
For the variant LPAF, the enrichment ratio was ≤ 0.25.
The value for MMRH was ≤ 0.25.
As to NRGY, the enrichment ratio is ≤ 0.25.
Under EMSQ stands ≤ 0.25; under NFFH, ≤ 0.25.
Regarding FLGN, the enrichment ratio is ≤ 0.25.
For the variant YATS, the enrichment ratio was ≤ 0.25.
In the case of QIYH, the enrichment ratio is ≤ 0.25.
As to CSSY, the enrichment ratio is 17.5.
As to VRLQ, the enrichment ratio was ≤ 0.25.
For the variant VRVR, the enrichment ratio was ≤ 0.25.
With QHYC, the enrichment ratio is ≤ 0.25.
Turning to ALVK, the enrichment ratio is 2.46.
As for NCDI, the enrichment ratio is ≤ 0.25.
Under GVCP stands ≤ 0.25.
Under ETHV stands ≤ 0.25; under TLVN, ≤ 0.25; under DVGR, 4.98.
The value for VSKR was ≤ 0.25.
Take LNYS: the enrichment ratio is ≤ 0.25.
Under QLGM stands 4.43; under WPKE, ≤ 0.25.
DQDM: the enrichment ratio is ≤ 0.25.
In the case of MNFL, the enrichment ratio was 14.1.
As to KDID, the enrichment ratio was ≤ 0.25.
With NSIP, the enrichment ratio is ≤ 0.25.
The value for PSSV was ≤ 0.25; that for IMVI was 0.337.
As to IFNN, the enrichment ratio was ≤ 0.25.
Under PVDW stands ≤ 0.25.
Under KAQD stands ≤ 0.25; under PHKL, ≤ 0.25.
The value for LNMM was 1.77.
With SQNA, the enrichment ratio was ≤ 0.25.
Turning to YPGR, the enrichment ratio is ≤ 0.25.
Under GQKL stands ≤ 0.25.
For the variant GNIY, the enrichment ratio is ≤ 0.25.
As for FHDQ, the enrichment ratio was ≤ 0.25.
As for RHTV, the enrichment ratio was ≤ 0.25.
Under DRRT stands 0.539.
The value for FAFH was ≤ 0.25.
Take TVRC: the enrichment ratio is ≤ 0.25.
Under KIQN stands ≤ 0.25; under QMAY, ≤ 0.25.
On to CVFN, for which the enrichment ratio was ≤ 0.25.
In the case of LDYD, the enrichment ratio was ≤ 0.25.
The value for PCFC was ≤ 0.25; that for ASAE was 5.56.
IKTY: the enrichment ratio was ≤ 0.25.
On to YKIV, for which the enrichment ratio was ≤ 0.25.
As for AITC, the enrichment ratio was found to be 19.
With SMFS, the enrichment ratio is ≤ 0.25.
Take DCAM: the enrichment ratio is ≤ 0.25.
The value for VNLG was 1.63; that for DEQY was ≤ 0.25.
The value for DTNI was ≤ 0.25; that for AYAA was ≤ 0.25.
HMPS: the enrichment ratio is ≤ 0.25.
With SVNY, the enrichment ratio was 0.873.
The value for FLKL was ≤ 0.25; that for FAYM was ≤ 0.25.
As for NQTK, the enrichment ratio is ≤ 0.25.
Under QHCC stands ≤ 0.25.
As to ITWS, the enrichment ratio is ≤ 0.25.
Under QDTH stands ≤ 0.25; under KNLC, ≤ 0.25; under NDNL, ≤ 0.25.
Under ISKR stands ≤ 0.25.
Take HSRC: the enrichment ratio is ≤ 0.25.
Under SQLR stands ≤ 0.25; under WDLW, ≤ 0.25; under EAEQ, ≤ 0.25.
Take PHNL: the enrichment ratio was ≤ 0.25.
On to REGS, for which the enrichment ratio was ≤ 0.25.
The value for KSCN was ≤ 0.25; that for ICLQ was 9.87.
Under DYRK stands ≤ 0.25.
SWSA: the enrichment ratio is ≤ 0.25.
As to NLIN, the enrichment ratio is ≤ 0.25.
Under DGED stands ≤ 0.25; under YNRK, ≤ 0.25.
Under WFWA stands ≤ 0.25; under EHVP, ≤ 0.25.
Under GSMI stands 1.27; under WWTQ, ≤ 0.25; under KLTK, ≤ 0.25.
With KSIH, the enrichment ratio is ≤ 0.25.
The value for KNSD was ≤ 0.25; that for FPMH was ≤ 0.25.
Regarding RYLT, the enrichment ratio was ≤ 0.25.
With YIMC, the enrichment ratio came to 0.355.
Under VANR stands ≤ 0.25; under FRKR, ≤ 0.25; under QLNS, ≤ 0.25.
On to ALFE, for which the enrichment ratio was ≤ 0.25.
On to FMPP, for which the enrichment ratio was ≤ 0.25.
Consider DRLG, for which the enrichment ratio is ≤ 0.25.
Under HRYA stands ≤ 0.25.
On to INLW, for which the enrichment ratio was ≤ 0.25.
For the variant EINA, the enrichment ratio is ≤ 0.25.
With ICNF, the enrichment ratio is ≤ 0.25.
As for WNVI, the enrichment ratio is ≤ 0.25.
Under LQWD stands ≤ 0.25.
The value for QTPV was ≤ 0.25; that for TAYR was ≤ 0.25.
As to WKFR, the enrichment ratio is ≤ 0.25.
Under RDWT stands ≤ 0.25.
For IIVD, the enrichment ratio is ≤ 0.25.
As to ILFY, the enrichment ratio was ≤ 0.25.
Consider TAKT, for which the enrichment ratio is ≤ 0.25.
Under HFFV stands ≤ 0.25; under YKEQ, ≤ 0.25.
Turning to FNTP, the enrichment ratio is ≤ 0.25.
With QPRS, the enrichment ratio is ≤ 0.25.
The value for WCLD was ≤ 0.25; that for WMSG was ≤ 0.25.
For the variant FELK, the enrichment ratio was ≤ 0.25.
In the case of QRQY, the enrichment ratio was ≤ 0.25.
Consider HFDS, for which the enrichment ratio was ≤ 0.25.
The value for KSRC was ≤ 0.25; that for TCDW was ≤ 0.25.
Turning to MPRD, the enrichment ratio is ≤ 0.25.
The value for SSLR was 0.256.
In the case of RHQK, the enrichment ratio was ≤ 0.25.
In the case of PMAT, the enrichment ratio was ≤ 0.25.
As for LEFI, the enrichment ratio worked out at 2.43.
Under EFNS stands ≤ 0.25; under QMHM, 28.3; under SCKA, ≤ 0.25.
The value for PMLC was ≤ 0.25.
On to IINC, for which the enrichment ratio is ≤ 0.25.
The value for PGPT was ≤ 0.25; that for FPCA was ≤ 0.25; that for DDPM was ≤ 0.25.
The value for TRYF was ≤ 0.25; that for MKFC was ≤ 0.25.
The value for SNHY was ≤ 0.25; that for DSNR was ≤ 0.25; that for IKFG was ≤ 0.25.
As to RKNA, the enrichment ratio was ≤ 0.25.
The value for NSPV was ≤ 0.25.
Turning to GQRC, the enrichment ratio is ≤ 0.25.
As for MERW, the enrichment ratio was ≤ 0.25.
As for RPHQ, the enrichment ratio was ≤ 0.25.
As to NFAR, the enrichment ratio was ≤ 0.25.
Under MPVA stands ≤ 0.25; under RIVY, ≤ 0.25.
In the case of EDAQ, the enrichment ratio is ≤ 0.25.
Under RWPM stands ≤ 0.25; under LVCV, ≤ 0.25; under ASKM, ≤ 0.25.
Turning to FTCI, the enrichment ratio turned out to be 1.01.
As for KEYH, the enrichment ratio is ≤ 0.25.
SFHR: the enrichment ratio was ≤ 0.25.
As to YPCS, the enrichment ratio was ≤ 0.25.
Take LQII: the enrichment ratio was ≤ 0.25.
The value for PRTY was ≤ 0.25; that for FINW was ≤ 0.25; that for YWRP was ≤ 0.25.
Under GQHM stands ≤ 0.25; under RFWM, ≤ 0.25.
Under DLPD stands ≤ 0.25; under ADVI, 8.19.
In the case of GDKN, the enrichment ratio was ≤ 0.25.
The value for ERPP was ≤ 0.25.
Consider HPGV, for which the enrichment ratio is ≤ 0.25.
On to KYRC, for which the enrichment ratio is ≤ 0.25.
LVRC: the enrichment ratio is ≤ 0.25.
The value for YALS was 5.59; that for DYDR was ≤ 0.25; that for WIFN was ≤ 0.25.
The value for MRKH was ≤ 0.25.
For DYDP, the enrichment ratio was ≤ 0.25.
Turning to QPRE, the enrichment ratio was ≤ 0.25.
Consider GNEL, for which the enrichment ratio is ≤ 0.25.
Under AQWY stands ≤ 0.25; under DCAA, ≤ 0.25; under SIFI, ≤ 0.25.
The value for GKGY was ≤ 0.25; that for KIYG was ≤ 0.25; that for CVSF was ≤ 0.25.
The value for GRGE was ≤ 0.25; that for MDAS was 0.445.
For the variant GNNL, the enrichment ratio was determined as 2.95.
Under GINA stands ≤ 0.25; under EVSF, 2.03.
As for CDDF, the enrichment ratio is ≤ 0.25.
HDRE: the enrichment ratio was ≤ 0.25.
The value for WPGR was ≤ 0.25; that for ESAQ was ≤ 0.25; that for NWKC was ≤ 0.25.
Under VTME stands ≤ 0.25; under QGNK, ≤ 0.25.
Under GRTC stands ≤ 0.25; under FKRK, ≤ 0.25; under FMIK, ≤ 0.25.
As to NYAQ, the enrichment ratio is ≤ 0.25.
Under TAHE stands ≤ 0.25; under PKNT, ≤ 0.25; under QAGY, 6.46.
With SAYP, the enrichment ratio was ≤ 0.25.
As to KSVD, the enrichment ratio is ≤ 0.25.
Regarding YGYM, the enrichment ratio was ≤ 0.25.
Regarding GPTW, the enrichment ratio is ≤ 0.25.
As for GNRV, the enrichment ratio was ≤ 0.25.
Under QTVP stands ≤ 0.25.
Regarding TNII, the enrichment ratio is ≤ 0.25.
Consider GMYE, for which the enrichment ratio is ≤ 0.25.
Under GSDM stands ≤ 0.25.
Take NCAH: the enrichment ratio is ≤ 0.25.
The value for RHMH was ≤ 0.25.
The value for ETYT was ≤ 0.25; that for GQRG was ≤ 0.25.
Regarding PKRQ, the enrichment ratio was ≤ 0.25.
As to YLYW, the enrichment ratio is ≤ 0.25.
Take IQAA: the enrichment ratio is ≤ 0.25.
The value for ANFN was ≤ 0.25; that for DISL was ≤ 0.25.
Under MPTC stands ≤ 0.25; under WGTH, ≤ 0.25.
The value for MGPM was ≤ 0.25.
